“And” between values parts separate entries of the source, which are not always exact repeats. Equal values may be shown once. The whole screen tested about 73,000 compounds, of which about 2,500 (3.4%) were called active. Inconclusive results, whose numbers are uncertain, are shown with a selection of clear calls. The call rests on the fitted dose curve; in most records, active means well fitted inhibition curve with a large enough effect; inconclusive means small, poorly fitted or top-dose-only effect; inactive means no such curve, though single readings can be large or run the other way. Potencies of inconclusive entries are doubtful fits and often do not repeat.
These molecules were tested against 3-hydroxyacyl-CoA dehydrogenase type-2 (Homo sapiens) (UniProt Q99714) (assay: qHTS Assay for Inhibitors of HADH2 (Hydroxyacyl-Coenzyme A Dehydrogenase, Type II)). Conditions: recombinant HADH2, NADH fluorescence, beta-hydroxybutyryl-CoA; activity change, negative = inhibition: at 57.1 µM (top of the series).
UniProt Q99714, sequence (Q99714 whole entry, looked up): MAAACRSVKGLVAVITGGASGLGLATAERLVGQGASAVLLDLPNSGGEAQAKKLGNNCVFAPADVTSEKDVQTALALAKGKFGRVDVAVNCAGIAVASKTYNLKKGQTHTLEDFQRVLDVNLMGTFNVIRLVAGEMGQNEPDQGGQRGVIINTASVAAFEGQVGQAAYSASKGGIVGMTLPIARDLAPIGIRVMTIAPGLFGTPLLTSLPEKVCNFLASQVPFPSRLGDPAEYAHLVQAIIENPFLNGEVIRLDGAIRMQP
UniProt Q99714, sequence (Q99714 whole entry, looked up): as above
Summary of the method: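 Activity measured as NADH fluorescence gain (360/450 nm), taken as the change between first and last reads of a 4-min kinetic run. Conditions: pH 9.0 Tris buffer, 20 nM E. coli-expressed His-tagged enzyme, 1 mM NAD+, 90 uM beta-hydroxybutyryl-CoA; 15-min compound preincubation.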
Further: nearly all actives have a fitted effect of over 60% in size.
On the % scale 0 is the no-effect control and ±100 the full control effect; potency means the concentration at half of the fitted maximal effect; tags describe the fitted curve by direction and shape.

| Structure (SMILES) | Potency | activity change, negative = inhibition |
| --- | --- | --- |
| Oc1ccccc1C1=Nc2ncnn2C(c2ccc(F)cc2)C1 (stereo not given) | inconclusive: 31.6 µM [inhibitor, single point] | – |
| COC(=O)C1=C(C)N(C)C(=O)NC1c1ccc(O)c(OC)c1 (stereo not given) | – | inactive: -1.05% |
| CC(=O)N(c1ccc(N(C(C)=O)S(=O)(=O)c2cccs2)cc1)S(=O)(=O)c1cccs1 | inconclusive: 25.1 µM [inhibitor, partial curve] | – |
| CCCc1cc(C(=O)OC)c(NC(=O)OCC)s1 | inconclusive: 3.98 µM [inhibitor, single point] | – |
| COc1ccc(-n2cnnc2SC(C)c2nc3sc(C)c(C)c3c(=O)[nH]2)cc1 (stereo not given) | inconclusive: 2.51 µM [inhibitor, single point] | – |
| COc1cc(C(c2sc3nc(C)nn3c2O)N2CCN(c3ccccc3)CC2)cc(OC)c1OC (stereo not given) | inconclusive: 39.8 µM [inhibitor, single point] | – |
| Cc1cccc2c1N(CC(=O)OC(C)C)C(=O)C2=O | inconclusive: 25.1 µM [inhibitor, partial curve] | – |
| C=CCn1c(Cc2nc3ccccc3[nH]2)n[nH]c1=S | inconclusive: 20 µM [inhibitor, single point] | – |
| Cc1ccc2cc(C#N)c(NCCCNC(=O)C3CCCO3)nc2c1 (stereo not given) | inconclusive: 39.8 µM [inhibitor, single point] | – |
| COc1ccccc1NC(=O)Cn1nc(C(F)(F)F)c2c1CCCC2 | inconclusive: 7.94 µM [inhibitor, single point] | – |
| O=C(CSc1nnc(CNc2ccccc2)o1)c1ccc2c(c1)OCCO2 | inconclusive: 20 µM [inhibitor, single point] | – |
| O=C(CSc1cccc2cccnc12)N1CCCC1 | active: 15.8 µM | – |
| CCn1ncc(Br)c1C(=O)Nc1sc2c(c1C(=O)OC)CCC2 | active: 25.1 µM | – |
| O=C1c2ccccc2C(O)N1CCN1CCOCC1 (stereo not given) | – | inactive: 7.37% |
| COC(=O)c1ccc(CSc2ccc3nnc(-c4ccc(OC)c(OC)c4)n3n2)o1 | – | inactive: -6.58% |
| CCOC(=O)Nc1ccc(NS(=O)(=O)c2ccc(C)cc2)cc1 | inconclusive: 6.31 µM [inhibitor, single point] | – |
| Nc1c(N2CCCC2)cc(Cl)c2nonc12 | inconclusive: 0.316 µM [inhibitor, partial curve] | – |
| CCN(CC(=O)NC)S(=O)(=O)c1ccc(Br)cc1 | – | inactive: -4.86% |
| c1csc(CNc2ncncc2-c2ccc3c(c2)OCO3)c1 | inconclusive: 12.6 µM [inhibitor, partial curve] | – |
| COc1ccc(CNc2ncncc2-c2ccccc2Cl)c(OC)c1 | inconclusive: 3.98 µM [inhibitor, full curve] | – |
| O=C(CCCn1c(=S)[nH]c2cc3c(cc2c1=O)OCO3)N1CCN(c2ncccn2)CC1 | inconclusive: 39.8 µM [inhibitor, single point] | – |
| CC1=C(C)CC2C(=O)N(c3cccc4ccccc34)C(=O)C2C1 (stereo not given) | inconclusive: 3.16 µM [inhibitor, full curve] | – |
| COc1ccc(OCCCSc2ncccn2)cc1 | inconclusive: 2 µM [inhibitor, partial curve] | – |
| c1nc2sc3c(c2c2nnnn12)CCCC3 | – | inconclusive: -122% [inhibitor] |
| N#CCCN1CCN(C(=S)c2ccc(-c3cc(Cl)ccc3Cl)o2)CC1 | inconclusive: 39.8 µM [inhibitor, single point] | – |

| Structure (SMILES) | Potency | activity change, negative = inhibition |
| --- | --- | --- |
| N#Cc1cccc(-c2nc(NCc3cccnc3)c3ccccc3n2)c1 | – | inactive: -13.2% |
| C=CCn1c(SCC(=O)Nc2ccc3c(c2)OCO3)nnc1-c1cc(Br)ccc1O | – | inactive: -2.96% |
| CC1(C)Cc2ccccc2-c2nc(NCCO)n(-c3ccccc3)c(=O)c21 | active: 5.01 µM | – |
| COC(=O)c1ccccc1NC(=O)c1cccs1 | – | inactive: 2.85% |
| COc1cccc(-c2nccc(-n3ccnc3)n2)c1 | – | inactive: -0.339% |
| O=C1c2ccccc2-c2n[nH]c3cccc1c23 | inactive and inconclusive: 39.8 µM [inhibitor, single point] | – |
| O=C(O)CCC(=O)c1ccc2sc3ccccc3c2c1 | – | inactive: 6.05% [at 11.4 µM] |
| Cc1ccc(C(=O)Nc2ccccc2N2CCN(C(=O)C(C)C)CC2)cc1C | – | inactive: 10.2% |
| CCCCNC(=O)Nc1ccnn1C1CCCCC1 | – | inactive: 1.76% |
| CCOC(=O)c1sc2nc(-c3ccco3)c3c(c2c1N)CC(C)(C)OC3 | active: 1 µM | – |
| C=CCN1C(=O)C2(/C(=C(\O)c3ccc4c(c3)OCCO4)C(=O)C(=O)N2CCCOC)c2ccccc21 (stereo not given) | – | inactive: -5.92% |
| COc1ccc(NC(=O)N2CCCC3(CCN(C(=O)c4c(C)noc4C)CC3)C2)cc1 | – | inactive: -3.8% |
| CCOc1ccc(OCC)c2sc(C)nc12 | inconclusive: 39.8 µM [inhibitor, single point] | – |
| C/C(=C\c1ccco1)C1C(C#N)=C(N)Oc2n[nH]c(-c3ccccc3)c21 (stereo not given) | inconclusive: 15.8 µM [inhibitor, partial curve] | – |
| CCOC(=O)c1oc2cc(O)c(CC)cc2c(=O)c1-c1ccc2c(c1)OCCO2 | inconclusive: 20 µM [inhibitor, partial curve] | – |
| C=CCOC(=O)C1=C(C)Nc2nnnn2C1c1cc(OC)ccc1OC (stereo not given) | inconclusive: 15.8 µM [inhibitor, partial curve] | – |
| COc1cc(OC)c(-c2nnc(-c3ccc(OC)c(OC)c3OC)o2)cc1OC | inconclusive: 31.6 µM [inhibitor, single point] | – |
| C=CCN1C(=O)CS/C1=C(\C#N)S(=O)(=O)c1ccc(C)cc1 | active: 15.8 µM | – |
| CCCc1nc2oc3c(N4CCNCC4)ncnc3c2c2c1CCCC2 | – | inactive: -8.92% |
| S=C1SCN(Cc2ccccn2)CN1Cc1ccco1 | inconclusive: 31.6 µM [inhibitor, single point] | – |
| CCOC(=O)c1c(NC(=O)c2nn(CC)cc2Br)c(C#N)nn1-c1ccccc1 | – | inactive: -0.747% |
| Cc1ccc(C)c(S(=O)(=O)C(C#N)c2nc3ccccc3nc2N2CCCC2)c1 (stereo not given) | – | inactive: -19.8% |
| CC12C=CC3(CN(Cc4ccccc4)C(=O)C3C1C(=O)NC1CC1)O2 (stereo not given) | – | inactive: 2.87% |
| Nc1nccs1 | inconclusive: 39.8 µM [inhibitor, single point] | – |
| CCOC(=O)CSc1nc(N)c(C#N)c(-c2ccc(OCC)cc2)c1C#N | inconclusive: 7.94 µM [inhibitor, partial curve] | – |

| Structure (SMILES) | Potency | activity change, negative = inhibition |
| --- | --- | --- |
| O=C(NCc1ccccn1)c1ccc2nc(-c3ccco3)c(-c3ccco3)nc2c1 | active: 5.01 µM | – |
| Cc1cnc(CNc2cc(-c3cccc(NS(C)(=O)=O)c3)ncn2)cn1 | inconclusive: 39.8 µM [inhibitor, single point] | – |
| NCCC(=O)N[C@@H](Cc1cnc[nH]1)C(=O)O | – | inactive: -6.63% |
| OCc1ccc(-c2nn(Cc3ccccc3)c3ccccc23)o1 | inconclusive: 39.8 µM [inhibitor, single point] | – |
| CC(C)(C)OC(=O)NCCc1nnc(S(=O)(=O)Cc2ccc(Cl)cc2Cl)o1 | inconclusive: 0.794 µM [inhibitor, full curve] | – |
| CCOC(=O)c1cnc(SC2CCc3ccccc3C2=O)nc1N (stereo not given) | inconclusive: 25.1 µM [inhibitor, single point] | – |
| CC12CCCCN1CCCc1c2[nH]c2ccccc12 (stereo not given) | – | inactive: 1.76% |
| CC(C)NC(=O)N1CC[C@@]2(CCCN(C(=O)c3ccncc3)C2)C1 | inconclusive: 31.6 µM [inhibitor, single point] | – |
| O=C(O)CCc1ccc(-c2ccc(F)cc2)n1CCC(=O)O | inconclusive: 25.1 µM [inhibitor, single point] | – |
| COc1ccccc1-c1cncnc1Nc1ccccc1 | inconclusive: 15.8 µM [inhibitor, partial curve] | – |
| Cc1onc(-c2ccccc2Cl)c1C(=O)Nc1ccc(-c2cn3cccnc3n2)cc1 | inconclusive: 6.31 µM [inhibitor, single point] | – |
| CCCc1cc(C(=O)Nc2sc(C)c(C)c2C(=O)OCC)no1 | inconclusive: 12.6 µM [inhibitor, partial curve] | – |
| Cc1cc(C)c(S(=O)(=O)Nc2ccccc2C(=O)O)cc1C | inconclusive: 31.6 µM [inhibitor, single point] | – |
| CC(C)(C)OC(=O)C1=NOC2(C=CC(=O)C=C2)C1 | inconclusive: 2.51 µM [inhibitor, partial curve] | – |
| Cc1ccc2[nH]c(=O)c(C(c3nnnn3CC3CCCO3)N3CCc4ccccc4C3)cc2c1 (stereo not given) | – | inactive: -1.4% |
| CCOC(=O)Cc1ccc(NS(=O)(=O)c2ccc(SC)cc2)cc1 | inconclusive: 25.1 µM [inhibitor, partial curve] | – |
| O=C(O)c1cc(-c2ccccc2)c(N2CCOCC2)s1 | inconclusive: 25.1 µM [inhibitor, single point] | – |
| Cc1ccc2cc3cc(C(=O)NCc4ccc5c(c4)OCO5)oc3nc2c1 | inconclusive: 15.8 µM [inhibitor, partial curve] | – |
| CCOC(=O)CNC(=O)c1cn(CC)c(=O)c2cc(OC)c(OC)cc12 | – | inactive: -3.36% |
| CSC1=C(C#N)C(c2ccc(Cl)cc2)C2=C(CC(C)(C)CC2=O)N1 (stereo not given) | inconclusive: 7.94 µM [inhibitor, single point] | – |
| Nc1nnc(SCC(=O)Nc2ccc(F)c(Cl)c2)n1-c1ccccc1 | – | inactive: 72.1% |
| CCOC(=O)c1[nH]c2ccc(C)cc2c1NC(=O)CN1CCCCC1 | inconclusive: 31.6 µM [inhibitor, single point] | – |
| CCCC(=O)Nc1nc2ccc(S(N)(=O)=O)cc2s1 | inconclusive: 31.6 µM [inhibitor, single point] | – |
| COCCn1c(=O)[nH]c2cc(C(=O)NCCCN3CCN(c4ccc(F)cc4)CC3)ccc2c1=O | inconclusive: 25.1 µM [inhibitor, single point] | – |
| O=S(=O)(c1ccc(-c2cn3ccccc3n2)cc1)N1CCOCC1 | active: 31.6 µM | – |
